The text below walks through data of the RNAGym collection of RNA variant scans (doi:10.1093/nar/gkz1192).

B1: CPEB3 Ribozyme (parent)
chain: UAACAGGGGGCCACAGCAGAAGCGUUCACGUCGCAGCCCCUGUCAGAUUCUGGUGAAUCUGCGAAUUCUGCUGUAUAUCUC

The source gives no read counts; variants with many changes may rest on few reads.

In this data set the parent is B1. Put plainly: self-cleavage, relative activity (ratio to wild type); higher = more cleavage; in vitro, sequencing. The method, boiled down:
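After error-prone PCR and barcoding, CPEB3 ribozyme mutant libraries were transcribed with T7 RNA polymerase at 37°C for 5 hours, then given 15 min with DNase I before an EDTA stop, and they cleaved during both steps. Reverse transcription with template switching preceded Illumina sequencing. Relative activity divides a variant's cleaved/total read fraction by the unmutated ribozyme's. At least 5 reads were required per variant, and three batches were averaged.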
Turning to UAACAGGGGGCCACAGCGGGACCGUUCACGUCGCAGCCCCUGUCAGAUUCUGGUGCAUCCGCGGAUUCUGCCGUAUAUCUC [A18G A20G G22C A56C U60C A64G U72C], the self-cleavage stood at 0.

Take UAACAGGGGGCCACAGCGGUAGCGUUCACGUCGCAGCCACUGUCAGAUUCUGGUGAAUCUGCGAAUUCUGCUGUAUAUCUC [A18G A20U C39A]: the self-cleavage was found to be 0.17.

As to UAACAGGGGGCCACAGCCGAAGCGUUCACGUCGCGGCCCCUGUCAGUUUCUGGUGAAUCUGCGAAUUCAGCUGUAUAUCUC [A18C A35G A47U U69A], the self-cleavage is 0.69.

In the case of UAACAGGGGGCCACAGCCGAAGCGUUCACGUCGCAGCCCCUGUCAGAUUCUGGUGAAUCUGCGAUUUCUGCCGUAUAUCUC [A18C A65U U72C], the self-cleavage was found to be 0.24.

As to UAACAGGGGGCCACAGCCGAAGCGUUCACGUCGGAGCCCCUGUCAGAUUCUGGUGAAUCUGCGGAUUCUGCUGUAUAUCUC [A18C C34G A64G], the self-cleavage was found to be 0.28.

For the variant UAACAGGGGGCCACAGCGGAGGCGUUCACGUCGCGGCCCCUGUCAGAUUCGGGUGAAUCUGCGAAUUCCGCCGUAUAUCUC [A18G A21G A35G U51G U69C U72C], the self-cleavage stood at 1.33.

As for UAACAGGGGGCCACAGCCGAAGCGUUCACGUCGCAGCCCCUGUCAGAUUCUGGUGGAUCUGCGAAGUCUGCUGUAUAUCUC [A18C A56G U66G], the self-cleavage worked out at 0.2.

With UAACAGGGGGCCACAGCGGGAGCGCUCACGGCGCAGCCCCAGUCUGAUUCUGGUGAAUCUGCGAAUUCUGCUGUAUAUCUC [A18G A20G U25C U31G U41A A45U], the self-cleavage is 0.35.

For UAACAGGGGGCCACAGCGGGAGCGUUCACGUCGCGGCCCCUGUCGGAUUCUGGUGGAUCUGCGAAUUCUGCUGUGUAUCUC [A18G A20G A35G A45G A56G A75G], the self-cleavage stood at 0.32.

Turning to UAACAGGGGGCCACAGCCGGAGCGUUCACGUCGCAGCCCCUGACAGACUCUGGUGAAUCUGCGAAUUCUGCUGUAUAUCUC [A18C A20G U43A U48C], the self-cleavage stood at 0.44.

As to UAACAGGGGGCCACAGCCGAAGCGCUCACGUCGCAUCCCCUGUCAGAUUCUGGUGAAUCUGCGAAUUCUGCUGUAUAUCUC [A18C U25C G36U], the self-cleavage is 0.21.

For UAACAGGGGGCCACAGUAGAAGCGUUCACGUCGCAGCCCCUGUCAGAUUCUGGUGAAUCCGCGAAUUCUGCUGUAUAUCCC [C17U U60C U80C], the self-cleavage was 0.24.

Take UAACAGGGGGCCACAGCGGGAGGGCUCACGACGCAGCCCCUGUCAGAUUCUGGUGAAUCUGCGAAUUCUGCUGUAUAUCUC [A18G A20G C23G U25C U31A]: the self-cleavage is 0.03.

Regarding UAACAGGGGGCCACAGCCCAAGCGUUCACGUCGCAGCCCCUGUCAGAUUCUGGAGAAUCUGCGAAUUCAGCUGUAUAUCUC [A18C G19C U54A U69A], the self-cleavage is 0.07.

Consider UAACAGGGGGCCACAGCCGAAGCGUUCACGUAGCAGCCCCUGUCCGAUUCUGGUGAAUCUGCGAAAUCUGCUGUAUAUCUC [A18C C32A A45C U66A], for which the self-cleavage was 0.26.

Turning to UAACAGGGGGCCACAGCCGAAGCGUUCACGUCGUAGCCCCUGUCAGAUUCUGGUGGAUCUGCGAAUUCUGCUGUAUAUCUC [A18C C34U A56G], the self-cleavage amounted to 0.08.

For UAACAGGGGGCCACAGCCGAAGCGUUCACGUCGCAGCCCCUGCCAGAUUCUGGUGAAUCUGGGAAUUCUGCUGUAUAUCCC [A18C U43C C62G U80C], the self-cleavage is 0.21.

Turning to UAACAGGGGGCCACAGCCGAAGCGUUCAUGUCGCAGCCCCUGUCAGAUUCUGGUGAAUCUGCGAAUUCUGCUGUAGAUCUC [A18C C29U U76G], the self-cleavage stood at 0.19.

Turning to UAACAGGGGGCCACAGCGGAGGCGUUCGCAUCGCAGCCCCUGUCAGGUUCUGGUGAAUCUCCGAACUCUGCUGUAUAUCUC [A18G A21G A28G G30A A47G G61C U66C], the self-cleavage turned out to be 0.03.

Regarding UAACAGGGGGCCACAGCCGAGGCGUUCACGUCGCAGCCCUCGUCAGAUUCUGGUGAACCUGCGAAUUCUGCUGUUUAUCUC [A18C A21G C40U U41C U58C A75U], the self-cleavage was 0.2.

Regarding UAACAGGGGGCCACAGCGGCAGCGUACACGUCGCGGCCCCUGUCGGAUUCUGGUGGAUCUGCGAAUUCUGCUGUGUAUCUC [A18G A20C U26A A35G A45G A56G A75G], the self-cleavage is 0.

Regarding UAACAGGGGGCCACAGCGGGAGCGUUCACAUCGCAGCCCCUGUCAGAUUCUGGUGAAUCUGCGAAUUCUGCUGUGUAUCUC [A18G A20G G30A A75G], the self-cleavage was found to be 0.07.

Consider UAACAGGGGGCCACAGUAGAAGCGUUCACGUCGCAGCCCCUGUCAGAUUCUGGUGAAUCUGCGAAUUCUGCUGUAAAUUUC [C17U U76A C79U], for which the self-cleavage came out at 0.76.

Consider UAACAGGGGGCCACAGUAGAAGCGUUCACGUCGCAGCCCCUGUCAGAUUCAGGUGAAUCCGCGAAUUCUGCUGUAUAUCUC [C17U U51A U60C], for which the self-cleavage was 0.17.

In the case of UAACAGGGGGCCACAGCGGUAGCGUUCACGUCGCGGCCCCUGUCAGAUUCUGGUGAAUCUGCGAAUUCUGCUGUAUAUCUC [A18G A20U A35G], the self-cleavage amounted to 0.19.

On to UAACAGGGGGCCACAGCGGAGGCGUUCGCGUCGCAGCCCCCGUCAGAUUCUGGUGAAUCUGCGAAUUCUGCUGUAUAUCUC [A18G A21G A28G U41C], for which the self-cleavage came to 0.4.

As to UAACAGGGGGCCACAGCCGAAGCGUUCACGUCGCAGCCCCUGUCAGAAUCUGGUGAAUCUGCGAAUUCUACUGUAUAUCUC [A18C U48A G70A], the self-cleavage was found to be 0.27.

In the case of UAACAGGGGGCCACAGUAGAAGCGUUCACGUCGCAGCCCCUGUCAGAUUCUGGUGAACCUGCGAACUCUGCUGUACAUCAC [C17U U58C U66C U76C U80A], the self-cleavage was determined as 0.09.

With UAACAGGGGGCCACAGCGGUAGCGUUCACGACGCAGCCCCUGUCAGAUUCUGGUGAACCUGAGAAUUCUGCUGUAUAUCUC [A18G A20U U31A U58C C62A], the self-cleavage came to 0.08.

UAACAGGGGGCCACAGCGGGAGCGUUCACGUCGCACCCCCUGCCAGAUUCUGGUGAGUCUGCGAAUUCUGCUGUACAUCUC [A18G A20G G36C U43C A57G U76C]: the self-cleavage was 0.15.

For the variant UAACAGGGGGCCACAGCGGGAGCGUUCACGUCGCAGCCCCUGUCAGAUUCUGGUGAAUCUGCGAAUUCUGCUAUAUAGCUC [A18G A20G G73A U78G], the self-cleavage worked out at 0.69.

Take UAACAGGGGGCCACAGCGGCAGCGUUAACGUCGCAGCCCCUGUUGGAUUCUGGUGAAUCUGCGAAUCCUGCUGUAUAUCUC [A18G A20C C27A C44U A45G U67C]: the self-cleavage was 0.07.

For UAACAGGGGGCCACAGCCGAAGCGUUCACGUCGCAGCCCCUGUCAGUUUCUGGCGAAUCUGCGAAUUCUGCAGUAUAUCUC [A18C A47U U54C U72A], the self-cleavage stood at 0.09.

Regarding UAACAGGGGGCCACAGCCGAAGCGUUCACGCCGCAGCCCCUGUCAGAUUCUGGAGAAUCUGCGUAUUCUGCUGUAUAUCCC [A18C U31C U54A A64U U80C], the self-cleavage came out at 0.13.
